Results as given in PubChem BioAssay AID504333 (National Center for Advancing Translational Sciences (NCATS), 2011).
Out of some 360,000 compounds screened, about 16,000 (4.4%) were called active. The inconclusive results got no clear call from the source; some entries with a clear call stand among them for comparison. Calls follow the shape of the dose curve; as a rule, active = well fitted inhibition curve with a large enough effect; inconclusive = small, poorly fitted or top-dose-only effect; inactive = no such curve, though single readings can be large or run the other way. Where the call is inconclusive, the potency comes from a doubtful curve fit.

What follows are molecules tested against Bromodomain adjacent to zinc finger domain protein 2B (Homo sapiens) (UniProt Q9UIF8) (assay: qHTS Assay for Inhibitors of BAZ2B). Conditions: AlphaScreen BAZ2B-H3K14Ac peptide displacement; series mostly up to 114 µM.
Sequence of UniProt Q9UIF8 (Q9UIF8 whole entry, looked up, the tested form may be a part): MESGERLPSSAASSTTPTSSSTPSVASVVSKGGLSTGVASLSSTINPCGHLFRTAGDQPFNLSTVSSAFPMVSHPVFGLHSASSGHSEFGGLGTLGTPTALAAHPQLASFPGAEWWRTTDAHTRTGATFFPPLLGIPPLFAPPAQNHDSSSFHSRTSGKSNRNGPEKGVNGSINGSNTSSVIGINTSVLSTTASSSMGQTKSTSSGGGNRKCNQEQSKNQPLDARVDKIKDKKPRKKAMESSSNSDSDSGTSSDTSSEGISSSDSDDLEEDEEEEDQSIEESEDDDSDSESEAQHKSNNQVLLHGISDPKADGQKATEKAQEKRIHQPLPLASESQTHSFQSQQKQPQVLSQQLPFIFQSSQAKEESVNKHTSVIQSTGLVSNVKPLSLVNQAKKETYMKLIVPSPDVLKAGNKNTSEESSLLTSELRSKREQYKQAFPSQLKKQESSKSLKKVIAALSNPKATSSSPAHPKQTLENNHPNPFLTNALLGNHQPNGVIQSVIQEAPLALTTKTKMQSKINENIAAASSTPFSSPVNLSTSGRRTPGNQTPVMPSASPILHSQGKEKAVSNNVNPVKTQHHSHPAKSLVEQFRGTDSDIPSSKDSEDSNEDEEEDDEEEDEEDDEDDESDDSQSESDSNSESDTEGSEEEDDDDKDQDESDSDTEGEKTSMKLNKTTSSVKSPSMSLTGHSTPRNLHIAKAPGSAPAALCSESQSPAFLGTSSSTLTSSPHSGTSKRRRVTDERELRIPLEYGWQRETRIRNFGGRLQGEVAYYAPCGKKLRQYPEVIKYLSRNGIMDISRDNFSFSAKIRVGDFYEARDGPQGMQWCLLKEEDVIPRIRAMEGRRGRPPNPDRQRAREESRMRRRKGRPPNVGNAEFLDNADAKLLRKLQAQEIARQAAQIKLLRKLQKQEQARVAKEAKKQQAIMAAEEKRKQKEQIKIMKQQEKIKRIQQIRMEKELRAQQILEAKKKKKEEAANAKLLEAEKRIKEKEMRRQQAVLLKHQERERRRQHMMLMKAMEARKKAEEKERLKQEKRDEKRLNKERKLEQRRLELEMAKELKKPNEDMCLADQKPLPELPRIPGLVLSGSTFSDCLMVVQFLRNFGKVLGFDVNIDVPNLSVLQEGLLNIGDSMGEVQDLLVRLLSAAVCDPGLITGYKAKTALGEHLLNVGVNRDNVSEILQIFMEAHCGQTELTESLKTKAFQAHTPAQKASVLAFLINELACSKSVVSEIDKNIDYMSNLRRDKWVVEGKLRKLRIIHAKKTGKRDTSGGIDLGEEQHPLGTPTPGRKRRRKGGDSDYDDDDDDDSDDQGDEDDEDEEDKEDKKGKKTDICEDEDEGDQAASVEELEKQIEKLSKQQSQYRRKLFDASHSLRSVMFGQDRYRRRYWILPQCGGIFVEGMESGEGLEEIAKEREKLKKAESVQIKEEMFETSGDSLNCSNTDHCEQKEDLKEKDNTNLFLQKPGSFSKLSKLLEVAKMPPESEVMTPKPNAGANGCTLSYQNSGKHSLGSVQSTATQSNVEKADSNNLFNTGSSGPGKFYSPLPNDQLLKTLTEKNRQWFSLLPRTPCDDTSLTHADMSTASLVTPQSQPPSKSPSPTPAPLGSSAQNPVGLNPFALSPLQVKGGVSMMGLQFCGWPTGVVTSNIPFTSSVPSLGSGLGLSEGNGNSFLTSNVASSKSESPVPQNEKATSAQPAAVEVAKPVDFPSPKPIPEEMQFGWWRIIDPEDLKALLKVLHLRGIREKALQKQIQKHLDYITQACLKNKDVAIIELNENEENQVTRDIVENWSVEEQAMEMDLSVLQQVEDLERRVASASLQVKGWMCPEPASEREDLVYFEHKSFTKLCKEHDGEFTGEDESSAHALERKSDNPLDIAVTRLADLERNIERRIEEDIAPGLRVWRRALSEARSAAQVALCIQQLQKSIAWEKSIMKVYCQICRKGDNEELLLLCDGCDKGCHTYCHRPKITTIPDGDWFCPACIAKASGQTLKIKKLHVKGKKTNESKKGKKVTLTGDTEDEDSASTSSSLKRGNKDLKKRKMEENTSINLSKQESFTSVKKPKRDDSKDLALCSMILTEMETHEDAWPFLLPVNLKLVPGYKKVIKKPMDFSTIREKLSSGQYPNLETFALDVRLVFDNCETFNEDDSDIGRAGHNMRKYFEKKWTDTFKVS
Outline: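 Compounds, titrated to a top concentration of 110 uM, were incubated 30 min at room temperature with preformed BAZ2B/acetyl-K14 H3 peptide complex (50 nM each). Proximity signal was measured by AlphaScreen after 20 min with beads.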
Also: nearly all actives have a fitted effect of over 60% in size.
Potency is read from the fitted curve at half-maximal effect; tags tell the direction and shape of the fitted curve.

| Compound | Potency |
| --- | --- |
| Cc1ccc(-c2cn(-c3ccccc3)c(=S)[nH]2)cc1C | active: 31.6 µM |
| COc1ccc(/C=N/NS(=O)(=O)c2ccc(C)cc2)cc1OC(=O)c1ccccc1 | active: 79.4 µM |
| Cc1nc2c(c(C)nn2C(C)(C)C)c(C)c1CCC(=O)Nc1ccc(Br)cc1Br | inactive |
| Cn1cccc1Cc1nnc(SCC(=O)NCc2ccco2)n1CCc1ccccc1 | inconclusive: 50.1 µM [inhibitor, partial curve] |
| COc1ccc(N2CCN(S(=O)(=O)CCNC(=O)c3c(F)cccc3Cl)CC2)cc1 | inactive |
| C/C=C/c1ccc(OCC(O)CN(C)Cc2ccc(SC)cc2)c(OC)c1 (centres undefined) | active: 50.1 µM |
| COc1ccc(S(=O)(=O)N(CC(=O)N/N=C/c2ccccc2C(=O)O)c2ccccc2OC)cc1 | inactive |
| Cc1cc(C)n(C(C)CC(=O)Nc2ccc(C)c(F)c2)n1 (centres undefined) | inconclusive: 79.4 µM [inhibitor, single point] |
| CCCCCCOc1ccc(N2C(=O)CC(NCc3ccc(S(N)(=O)=O)cc3)C2=O)cc1 (centres undefined) | inactive |
| O=C(/C=C\c1ccccc1)NCC(=O)N/N=C/c1ccc(O)cc1O | inactive |
| COc1ccccc1CNC(=O)CSc1ccsc1[N+](=O)[O-] | inconclusive: 70.8 µM [inhibitor, single point] |
| O=C(CN1CCN(c2cccc(Cl)c2)CC1)NC1CCCc2ccccc21 (centres undefined) | inconclusive: 56.2 µM [inhibitor, single point] |
| CN(Cc1ccccc1)c1nc2c(c(=O)[nH]c(=O)n2C)n1Cc1ccccc1Cl | inconclusive: 79.4 µM [inhibitor, single point] |
| CCc1cc2ccccc2nc1SCC(=O)N1CCN(C(=O)c2ccco2)CC1 | inconclusive: 79.4 µM [inhibitor, single point] |
| CCn1c(C(=O)O)c(S(=O)(=O)c2ccc(Cl)cc2)c2ccccc21 | inactive |
| CC(C)(C)c1ccc(-n2ncc3c2CCCC3NC(=O)c2cnccn2)cc1 (centres undefined) | inactive |
| COc1ccc(C(=O)Nc2nc3n(n2)C(c2ccc(F)cc2)C=C(c2ccc(Cl)cc2)N3)cc1 (centres undefined) | inconclusive: 89.1 µM [inhibitor, single point] |
| COc1ccc(N2CCN(C(=O)CSc3nc4nc(C)cc(C)n4n3)CC2)cc1 | inactive |
| CCCOc1ccc(C2NC(=S)NC(C)=C2C(=O)c2ccccc2)cc1OC (centres undefined) | inconclusive: 44.7 µM [inhibitor, partial curve] |
| CCc1cccc(NS(=O)(=O)c2cc(-c3cnc(C)o3)ccc2OC)c1 | inconclusive: 79.4 µM [inhibitor, single point] |
| CCN(CC)CCCNC(=O)CN1C(=O)COc2ccc(S(=O)(=O)N3CCC(C)CC3)cc21 | inactive |
| COc1cc(C(=S)N2CCCC2)ccc1OCC(N)=O | inactive |
| CCCOc1ccc(CSC2=NCCN2)cc1[N+](=O)[O-] | inactive |
| Cn1nc([N+](=O)[O-])nc1Sc1nnnn1-c1ccc(C(=O)O)cc1 | inconclusive: 28.2 µM [inhibitor, partial curve] |
| CN1CCN(C(=O)CCN2C(=O)c3ccccc3C2=O)CC1 | inconclusive: 89.1 µM [inhibitor, single point] |

| Compound | Potency |
| --- | --- |
| Cc1csc(N(C(=O)c2cccc(S(=O)(=O)N3CCCC3)c2)c2ccccc2)n1 | inconclusive: 89.1 µM [inhibitor, single point] |
| O=C(COC(=O)CCCc1nc2ccccc2s1)Nc1ncc(Cl)cc1Cl | inconclusive: 89.1 µM [inhibitor, single point] |
| Cc1onc(-c2c(Cl)cccc2Cl)c1C(=O)O/N=C(\C#N)c1ccccc1 | inconclusive: 79.4 µM [inhibitor, single point] |
| COc1cc(OC)c2c(c1C(CCN1CCOCC1)c1ccc(N(C)C)cc1)OC(=O)CC2c1ccc(N(C)C)cc1 (centres undefined) | active: 10 µM |
| C/C(=C\c1ccccc1)CN1CCN(C(C)C)C(CCO)C1 (centres undefined) | inactive |
| CN(C(=O)COC(=O)COc1ccccc1F)C1CCS(=O)(=O)C1 (centres undefined) | inactive |
| COc1ccc(O)c(CN2CCN(C/C=C/c3ccccc3)CC2)c1 | inconclusive: 50.1 µM [inhibitor, partial curve] |
| N#Cc1nc(COc2ccccc2F)oc1NCCCn1ccnc1 | inconclusive: 50.1 µM [inhibitor, partial curve] |
| Cc1ccc(S(=O)(=O)Nc2nc(C)c(C(=O)Nc3ccccc3)s2)cc1 | inactive |
| COc1ccccc1NC(=O)CCS(=O)(=O)c1ccccc1 | inactive |
| COc1cc(OC)c(CN2CCN(c3ccc(F)cc3)CC2)cc1Br | active: 50.1 µM |
| Cc1ccc(C(=O)C2=C(O)C(=O)N(c3ncccn3)C2c2ccc(F)cc2)o1 (centres undefined) | inconclusive: 79.4 µM [inhibitor, partial curve] |
| CC(=O)Nc1ccc2c(c1)nc1n2CCN(C(C)c2ccccc2)C1 (centres undefined) | inconclusive: 70.8 µM [inhibitor, single point] |
| COc1ccc2c(C)cc(SCC(=O)Nc3cc(C(N)=O)cc(C(N)=O)c3)nc2c1 | inconclusive: 79.4 µM [inhibitor, partial curve] |
| CCOC(=O)c1sc2nc(C)n(N)c(=O)c2c1C | inactive |
| Cc1cccc(C(=O)OCc2cc(=O)n3nc(-c4cccs4)sc3n2)c1 | inconclusive: 89.1 µM [inhibitor, single point] |
| O=C(O)c1cccc(Nc2ccc([N+](=O)[O-])c3nonc23)c1 | inconclusive: 50.1 µM [inhibitor, partial curve] |
| CCCSc1nnc2n(-c3cccc(C)c3)c(=O)c3c4c(sc3n12)CCCC4 | inactive |
| O=[N+]([O-])c1cc([N+](=O)[O-])c(N2CCOCC2)cc1NCc1ccccc1 | inconclusive: 31.6 µM [inhibitor, full curve, poor fit] |
| O=C(N/N=C/c1cccc2nccnc12)c1ccncc1 | active: 17.8 µM |
| COc1ccc(-c2[nH]c(-c3ccc4c(c3)OCO4)nc2-c2ccccc2)cc1 | inconclusive: 44.7 µM [inhibitor, partial curve] |
| Oc1cccc2ccc[n+](CC(O)Cn3c4ccccc4c4ccccc43)c12 (centres undefined) | inconclusive: 89.1 µM [inhibitor, single point] |
| Cc1ccc(C)c(CN2CCN(c3ncccn3)CC2)c1 | inconclusive: 89.1 µM [inhibitor, single point] |
| Oc1ccc(N=Nc2ccc3c(c2)OCCO3)c2ncccc12 | inconclusive: 11.2 µM [inhibitor, full curve] |
| COc1cccc(Nc2sc(C(=O)c3ccc(Cl)cc3)c(N)c2C(=O)NCCc2ccc(OC)c(OC)c2)c1 | inconclusive: 25.1 µM [inhibitor, partial curve] |

| Compound | Potency |
| --- | --- |
| O=C(c1ccc2c(c1)N(Cc1ccccc1)CCS2)N1CCCCC1 | inconclusive: 44.7 µM [inhibitor, partial curve] |
| CN(C)C(=O)c1cccn1-c1ncc(C(F)(F)F)cc1Cl | inactive |
| O=C1CCCN2N=C(SCC(=O)Nc3nc4ccccc4s3)SC2=N1 | inconclusive: 79.4 µM [inhibitor, single point] |
| Cc1cc(C)c(CN2C(=O)c3ccccc3S(=O)(=O)c3ccc(C(=O)OCC4CCCO4)cc32)c(C)c1 (centres undefined) | inactive |
| CNc1nc(-c2c[nH]c3ccccc23)cs1 | active: 35.5 µM |
| CCOc1ccc2c(c1)c(=O)c(C(=O)c1ccc(C)cc1)cn2Cc1ccccc1OC | inconclusive: 22.4 µM [inhibitor, full curve] |
| CSC(C(=O)c1cc2ccccc2o1)c1ccccc1 (centres undefined) | inactive |
| CO[C@@]1(NC(=O)Cc2cccs2)C(=O)N2C(C(=O)O)=C(COC(N)=O)CS[C@@H]21 | active: 50.1 µM |
| COc1ccc2c(C#N)c3ccccn3c2c1 | inactive |
| CC(C)(C)C(=O)Nc1cc2c3c(c1)CCN3C(=O)CC2 | inactive |
| CCn1c(C)c(Br)c(=O)c(C(=O)OC)c1-c1ccc(Cl)cc1 | inactive |
| CCCCCCN1C=CC(=C/C=C(\C#N)C(=O)OCC)C=C1 | inconclusive: 89.1 µM [inhibitor, single point] |
| COCC(C)n1c(C)cc(C(=O)COC(=O)CN=C2NS(=O)(=O)c3ccccc32)c1C (centres undefined) | inconclusive: 79.4 µM [inhibitor, partial curve] |
| CN(C)c1ccc(CNC(=O)Cn2ccc3cc(S(=O)(=O)N4CCCCCC4)ccc32)cc1 | inconclusive: 89.1 µM [inhibitor, single point] |
| O=C(c1ccccc1)c1ccccc1N1C(=O)C=CC1=O | inactive |
| COc1ccc(-c2nc(Cn3c(=O)cc(C)c4c(C)nn(-c5ccccc5)c43)c(C)o2)c(OC)c1 | inconclusive: 12.6 µM [inhibitor, full curve] |
| CCOC(=O)c1c(C)[nH]c(CCC(=O)NCCCN2CCN(c3ccccc3F)CC2)c1C | inactive |
| Cc1ccc(-c2nn(-c3cc(Cl)ccc3[N+](=O)[O-])c(=O)c3ccccc23)cc1C | active: 44.7 µM |
| Cc1c2cnn(CC(=O)N3CCN(c4ccc(F)cc4)CC3)c(=O)c2c(C)n1Cc1ccccc1F | inconclusive: 39.8 µM [inhibitor, partial curve] |
| Cc1ccc(NC(=O)CC(N)=S)cc1 | inactive |
| O=[N+]([O-])c1cnc(Nc2ccc(Cl)cn2)c([N+](=O)[O-])c1 | inconclusive: 22.4 µM [inhibitor, full curve] |
| N#Cc1cccc(NC(=O)CCNS(=O)(=O)c2ccc3c(c2)CCN3C(=O)C2CC2)c1 | inactive |
| S=c1[nH]nc(-c2ccccn2)n1/N=C/c1ccc(Br)s1 | active: 12.6 µM |
| Cc1ccc(Nc2nc(CSc3nnnn3-c3ccccc3)cc(=O)[nH]2)cc1 | inconclusive: 79.4 µM [inhibitor, single point] |
